# Experimental data as given in PubChem BioAssay AID588591 (National Center for Advancing Translational Sciences (NCATS), 2011).
# Screen size: about 390,000 compounds; about 4,700 (1.2%) were called active. Inconclusive means that the source gave no clear call. Such entries were picked first, then a sample of the others. The call rests on the fitted dose curve; in most records, active means well fitted inhibition curve with a large enough effect; inconclusive means small, poorly fitted or top-dose-only effect, or another doubt; inactive means no such curve, though single readings can be large or run the other way. Potencies of inconclusive entries are doubtful fits and often do not repeat.
# Target: DNA polymerase eta (Homo sapiens) (UniProt Q9Y253)
# Test: qHTS for Inhibitors of Polymerase Eta
# Details: recombinant Pol eta, fluorescent DNA replication assay; series mostly up to 114 µM
# Method in brief: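 Pol eta at 10 nM preincubated with compounds 15 min at room temperature; reaction started with fluorescent substrate (50 nM final) and read kinetically at 0 and 10 min.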
# Potency means the concentration at half of the fitted maximal effect; tags describe the fitted curve by direction and shape.
# Sequence of UniProt Q9Y253 (Q9Y253 whole entry, looked up): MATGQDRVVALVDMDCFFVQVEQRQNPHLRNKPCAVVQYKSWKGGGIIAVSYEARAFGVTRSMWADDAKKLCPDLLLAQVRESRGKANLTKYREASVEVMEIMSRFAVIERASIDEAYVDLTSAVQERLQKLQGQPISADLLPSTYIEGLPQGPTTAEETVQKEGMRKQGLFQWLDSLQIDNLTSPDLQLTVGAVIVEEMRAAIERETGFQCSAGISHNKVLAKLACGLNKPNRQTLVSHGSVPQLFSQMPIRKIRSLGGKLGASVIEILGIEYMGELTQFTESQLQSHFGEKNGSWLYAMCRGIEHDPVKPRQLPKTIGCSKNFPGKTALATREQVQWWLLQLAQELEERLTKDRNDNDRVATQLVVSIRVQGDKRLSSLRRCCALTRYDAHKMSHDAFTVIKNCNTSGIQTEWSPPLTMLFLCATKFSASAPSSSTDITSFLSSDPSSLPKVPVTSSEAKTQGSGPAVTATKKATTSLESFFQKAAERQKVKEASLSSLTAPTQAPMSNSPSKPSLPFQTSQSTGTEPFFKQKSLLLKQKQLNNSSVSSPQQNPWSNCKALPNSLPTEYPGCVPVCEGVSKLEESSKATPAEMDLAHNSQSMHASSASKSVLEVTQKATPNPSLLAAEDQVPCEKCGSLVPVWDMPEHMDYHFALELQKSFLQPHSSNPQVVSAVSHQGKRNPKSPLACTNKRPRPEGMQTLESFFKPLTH
row,SMILES,Potency
1,COCc1ccc(CN2CCC(n3nccc3NC(=O)CCOc3ccccc3)CC2)o1,inactive
2,Cc1ccccc1-c1cc(C(=O)Nc2sc(C(=O)OC(C)C)c(C)c2C#N)c2ccccc2n1,"inconclusive: 31.6 µM [inhibitor, partial curve, poor fit]"
3,Cc1c([N+](=O)[O-])c(C(=O)NC2CCCC2)nn1C,inactive
4,N#Cc1c2c(c(NCc3ccco3)n3c1nc1ccccc13)CCC2,"inconclusive: 14.1 µM [inhibitor, partial curve]"
5,CCc1ccc(NC(=O)N(CCCN2CCOCC2)Cc2cccs2)cc1,"inconclusive: 79.4 µM [inhibitor, partial curve, poor fit]"
6,O=c1cc(-c2ccccc2)[nH]n1-c1nc2ccccc2s1,"inconclusive: 35.5 µM [inhibitor, partial curve, poor fit]"
7,COc1cc2c(cc1N)-c1ccc(N)cc1C2=O,"inconclusive: 63.1 µM [inhibitor, partial curve, poor fit]"
8,Cc1cc(C)cc(OCC(=O)N2N=C(C(F)(F)F)CC2(O)C(C)(C)C)c1 (configuration not stated),"inconclusive: 79.4 µM [inhibitor, partial curve, poor fit]"
9,COc1ccc(CCNC(=O)CSc2nn(-c3ccccc3)c(=S)s2)cc1,inactive
10,NC(=O)c1ccc(N2CCN(c3ncc(C(F)(F)F)cc3Cl)CC2)cc1,"inconclusive: 100 µM [inhibitor, partial curve, poor fit]"
11,COC(=O)c1ccc(CSc2nc3ccncc3n2Cc2ccc(F)cc2)cc1,inactive
12,CC(C)c1nc2sc3c(N4CCCCC4)ncnc3c2c2c1CCCC2,inactive
13,Cc1c(O)cc2c(c1O)C(=O)CC(c1ccc(O)cc1)O2 (configuration not stated),active: 8.91 µM
14,CC1=Nc2cc(C(=O)NCc3ccco3)ccc2Sc2ccc(C)cc21,"inconclusive: 39.8 µM [inhibitor, partial curve, poor fit]"
15,CSc1ccccc1-n1nnnc1SCC(=O)Nc1ccccc1C,inactive
16,CCCNC(=S)N1CCN(C(c2ccccc2)c2ccccc2)CC1,"inconclusive: 56.2 µM [inhibitor, partial curve, poor fit]"
17,O=C(COc1ccc(-c2nnco2)cc1)NC1CCS(=O)(=O)C1 (configuration not stated),"inconclusive: 89.1 µM [inhibitor, partial curve]"
18,O=C(NCCCN1CCOCC1)c1sc2cc(Cl)ccc2c1Cl,inactive
19,CC(C)CN(CC(C)C)c1nc(N)c(C#N)c(CC#N)c1C#N,"inconclusive: 14.1 µM [inhibitor, full curve, poor fit]"
20,CC(C)Cn1c(SCc2nnc(-c3cccs3)o2)nc(O)cc1=O,"inconclusive: 15.8 µM [inhibitor, full curve, poor fit]"
21,Cc1nn(-c2ccccc2)c(Cl)c1/C=N/Nc1ccc(S(=O)(=O)Nc2ccccc2C(=O)O)cc1[N+](=O)[O-],active: 35.5 µM
22,COc1cccc(CNCc2c(C(=O)O)c(C)n(Cc3ccc(F)cc3Cl)c2C)c1OC,inactive
23,CC(C(=O)O)N1CCCCC1 (configuration not stated),"inconclusive: 79.4 µM [inhibitor, partial curve, poor fit]"

row,SMILES,Potency
1,CSc1ccc(CCNC(=O)CCc2c(C)nc3c4cccnc4nn3c2C)cc1,inactive
2,COC(=O)CN1C(c2ccc(Cl)cc2)=Nc2ccc(Cl)cc2C1c1ccccc1 (configuration not stated),"inconclusive: 79.4 µM [inhibitor, partial curve, poor fit]"
3,O=[N+]([O-])c1ccc(-c2c[nH]c(=S)[nH]2)cc1,active: 39.8 µM
4,CN=C1SC(CC(=O)Nc2ccc(C(=O)O)cc2)C(=O)N1C (configuration not stated),"inconclusive: 79.4 µM [inhibitor, partial curve]"
5,CC(C)C(=O)NC(c1cccs1)c1cc([N+](=O)[O-])c2cccnc2c1O (configuration not stated),"inconclusive: 44.7 µM [inhibitor, partial curve]"
6,COc1cccc(CNS(=O)(=O)c2ccc(S(=O)(=O)NC3CC3)cc2)c1,"inconclusive: 89.1 µM [inhibitor, partial curve, poor fit]"
7,CCc1nnc(NC(=O)CN2C(=O)CCC2=O)s1,"inconclusive: 89.1 µM [inhibitor, partial curve, poor fit]"
8,Cc1cccc2cc(C#N)c(SCCN3CCCCC3)nc12,"inconclusive: 20 µM [inhibitor, partial curve, poor fit]"
9,C[N+](C)(C)c1ccc(/C=N/Nc2nc(Cl)c(C#N)c(Cl)c2Cl)cc1,"inconclusive: 39.8 µM [inhibitor, partial curve, poor fit]"
10,O=C(Cc1cc(=O)[nH][nH]1)N/N=C/C(Cl)=C/c1ccccc1,"inconclusive: 15.8 µM [inhibitor, full curve, poor fit]"
11,Cc1ccc(N2CC(C(=O)Nc3nnc(SCCC4OCCO4)s3)CC2=O)cc1C (configuration not stated),"inconclusive: 20 µM [inhibitor, full curve]"
12,O=C(Oc1ccc(-c2nc(-c3ccccn3)no2)cc1)c1ccccc1,"inconclusive: 20 µM [inhibitor, partial curve, poor fit]"
13,CCn1c(O)c(N=Nc2ccc(Cl)c(C(=O)O)c2)c2ccccc21,"inconclusive: 28.2 µM [inhibitor, partial curve, poor fit]"
14,N#C/C(=C\c1ccc(Cl)cc1)c1nc2ncccc2[nH]1,"inconclusive: 70.8 µM [inhibitor, single point]"
15,Cc1ccc(/C=C/C(=O)NCc2ccccn2)o1,active: 3.16 µM
16,CC1CC(C)CN(C(=O)CN2C(=O)NC(c3ccccc3)(c3ccccc3)C2=O)C1 (configuration not stated),inactive
17,Nc1nc(Nc2ccccc2F)nc(N2CCCC2)c1[N+](=O)[O-],inactive
18,CC(NC(=O)COc1ncnc2cc([N+](=O)[O-])ccc12)c1ccccc1 (configuration not stated),"inconclusive: 15.8 µM [inhibitor, partial curve, poor fit]"
19,CCOc1ccc(CCNC(=O)CN2C(=O)COc3ccc(S(=O)(=O)N(CC)CC)cc32)cc1,inactive
20,CCCN1C(=O)/C(=C/c2c(N3CCNC(=O)C3CC(=O)OCC)nc3c(C)cccn3c2=O)SC1=S (configuration not stated),"inconclusive: 22.4 µM [inhibitor, full curve]"
21,CCOC(=O)c1cc(-c2ccco2)nc2c1c(C)nn2-c1cccc(Cl)c1,"inconclusive: 39.8 µM [inhibitor, partial curve, poor fit]"
22,O=S(=O)(c1ccccc1)c1nnn2c1nc(NC1CCCCCC1)c1sccc12,inactive
23,Cc1cccc(Cc2c(C)nc3nc(SCc4cccc(F)c4)nn3c2C)c1,inactive

row,SMILES,Potency
1,CCNC(=O)c1ccc(NS(=O)(=O)c2ccc3[nH]c(=O)[nH]c3c2)cc1,inactive
2,O=C(O)CCC(=O)N1CCC(n2nnc3cc(C(F)(F)F)ccc32)CC1,"inconclusive: 100 µM [inhibitor, single point]"
3,COc1ccc(-c2nc3ccccc3o2)cc1NC(=O)c1ccc(OCC(C)C)cc1,"inconclusive: 79.4 µM [inhibitor, partial curve, poor fit]"
4,COc1ccc(/C=C2\CCC(C3CCCC3)C2=O)cc1 (configuration not stated),inactive
5,CC(=O)N1CCN(C(=O)c2cccc(S(=O)(=O)N3CCN(c4ccccc4)CC3)c2)CC1,"inconclusive: 89.1 µM [inhibitor, partial curve, poor fit]"
6,CC(C)(C)c1nc(SCC(=O)NCc2ccco2)c2ccccc2n1,"inconclusive: 22.4 µM [inhibitor, partial curve, poor fit]"
7,Cc1ccc(NC(=O)Cn2cc(C(=O)c3ccco3)c3ccccc32)c(C)c1,"inconclusive: 89.1 µM [inhibitor, single point]"
8,Cc1ccc(Cn2ccnc2SCC(=O)Nc2ccc3c(c2)OCCO3)cc1,"inconclusive: 100 µM [inhibitor, partial curve, poor fit]"
9,O=C(NCc1ccco1)c1nc2nc(-c3cccs3)cc(C(F)(F)F)n2n1,active: 17.8 µM
10,N#Cc1c(-c2cccc(Cl)c2)[nH]c(=S)[nH]c1=O,inactive
11,C/C=C\C=C/C(=O)Nc1cccc(C2=NOC3(C2)C[C@@H](C(N)=O)N(C(=O)/C=C/C=C\C)C3)c1 (some centres not stated),active: 7.94 µM
12,Cc1ccc(S(=O)(=O)N2CCN(C(=O)c3cccs3)CC2)cc1C,"inconclusive: 100 µM [inhibitor, partial curve, poor fit]"
13,COc1ccc2c(CC(=O)OCc3nc4ccsc4c(=O)[nH]3)coc2c1,"inconclusive: 15.8 µM [inhibitor, partial curve, poor fit]"
14,CC(=O)c1sc(NC(=O)COc2ccc(C(C)C)c(C)c2)nc1C,"inconclusive: 3.55 µM [inhibitor, partial curve, poor fit]"
15,CC(C)(C)c1cc(NC(=O)CSc2nncs2)n(-c2ccccc2)n1,inactive
16,COc1ccc(Cn2c(C)nc3c(c2=O)c2nc4ccccc4nc2n3Cc2ccco2)cc1,active: 8.91 µM
17,CC1=C(C#N)c2nc(N)c(C#N)c(C)c2/C1=C\c1ccc(OCC(=O)O)c(Cl)c1,active: 7.94 µM
18,CCC(=O)c1coc2ccc(O)cc12,"inconclusive: 20 µM [inhibitor, partial curve, poor fit]"
19,Clc1cc(CSc2ccccc2)nc(-c2ccccc2)n1,"inconclusive: 25.1 µM [inhibitor, single point]"
20,COc1cc([C@@H]2c3cc4c(cc3[C@@H](O)[C@H]3COC(=O)[C@H]23)OCO4)cc(OC)c1O[Si](C)(C)C(C)(C)C,"inconclusive: 25.1 µM [inhibitor, partial curve, poor fit]"
21,CSc1ccc(-c2sc(Nc3ccccc3)n[n+]2-c2ccccc2)cc1,inactive
